# Some of the results follow.
# Key:
# Test in all cases: glycan array binding signal (z-score within array); higher = stronger binding
# Details in all cases: glycan notation: IUPAC condensed, linker removed
# [1] = molecular target: Gal(b1-4)GlcNAc(b1-3)[Gal(b1-4)GlcNAc(b1-6)]GalNAc
# How it was run: (§1)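 Arrays were curated from the Consortium for Functional Glycomics database, 3228 in total, and kept only where the protein sequence was available. Binding is expressed as a within-array Z-score. This score was averaged across arrays of the same protein sequence at different concentrations or buffers and across linkers, and negative values can be read as non-binding.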
# [2] = molecular target: Gal(b1-4)GlcNAc(b1-3)[GlcNAc(b1-6)]Gal(b1-4)GlcNAc
# How it was run: as §1
# [3] = molecular target: Gal(b1-4)GlcNAc(b1-6)Gal(b1-4)GlcNAc
# How it was run: as §1
# [4] = molecular target: Gal(b1-4)GlcNAc(b1-6)GalNAc
# How it was run: as §1
# [5] = molecular target: Gal(b1-4)GlcNAc(b1-6)[Gal(b1-3)]GalNAc
# How it was run: as §1
# Gal(b1-6)Gal = molecular target: Gal(b1-6)Gal
# How it was run: as §1
# Gal3S(b1-3)GalNAc = molecular target: Gal3S(b1-3)GalNAc
# How it was run: as §1
# Gal3S(b1-3)GlcNAc = molecular target: Gal3S(b1-3)GlcNAc
# How it was run: as §1
# [6] = molecular target: Gal3S(b1-3)[Fuc(a1-4)]GlcNAc
# How it was run: as §1
# Gal3S(b1-4)Glc = molecular target: Gal3S(b1-4)Glc
# How it was run: as §1
# Gal3S(b1-4)Glc6S = molecular target: Gal3S(b1-4)Glc6S
# How it was run: as §1
# Gal3S(b1-4)GlcNAc = molecular target: Gal3S(b1-4)GlcNAc
# How it was run: as §1
# Gal3S(b1-4)GlcNAc6S = molecular target: Gal3S(b1-4)GlcNAc6S
# How it was run: as §1
# [7] = molecular target: Gal3S(b1-4)[Fuc(a1-3)]Glc
# How it was run: as §1
# [8] = molecular target: Gal3S(b1-4)[Fuc(a1-3)]Glc6S
# How it was run: as §1
# Gal3S4S(b1-4)GlcNAc = molecular target: Gal3S4S(b1-4)GlcNAc
# How it was run: as §1
# Gal3S6S(b1-4)GlcNAc = molecular target: Gal3S6S(b1-4)GlcNAc
# How it was run: as §1
# Gal3S6S(b1-4)GlcNAc6S = molecular target: Gal3S6S(b1-4)GlcNAc6S
# How it was run: as §1
# Gal4S(b1-4)GlcNAc = molecular target: Gal4S(b1-4)GlcNAc
# How it was run: as §1
# Gal4S6S(b1-4)GlcNAc = molecular target: Gal4S6S(b1-4)GlcNAc
# How it was run: as §1
# Gal6S(b1-3)GlcNAc = molecular target: Gal6S(b1-3)GlcNAc
# How it was run: as §1
# Gal6S(b1-3)GlcNAc6S = molecular target: Gal6S(b1-3)GlcNAc6S
# How it was run: as §1
# Gal6S(b1-4)Glc = molecular target: Gal6S(b1-4)Glc
# How it was run: as §1
# Gal6S(b1-4)Glc6S = molecular target: Gal6S(b1-4)Glc6S
# How it was run: as §1
# Gal6S(b1-4)GlcNAc = molecular target: Gal6S(b1-4)GlcNAc
# How it was run: as §1
# Gal6S(b1-4)GlcNAc6S = molecular target: Gal6S(b1-4)GlcNAc6S
# How it was run: as §1
# GalNAc(a1-3)Gal = molecular target: GalNAc(a1-3)Gal
# How it was run: as §1
# GalNAc(a1-3)GalNAc = molecular target: GalNAc(a1-3)GalNAc
# How it was run: as §1
# [9] = molecular target: GalNAc(a1-3)GalNAc(b1-3)Gal(a1-4)Gal(b1-4)Glc
# How it was run: as §1
# [10] = molecular target: GalNAc(a1-3)GalNAc(b1-3)Gal(a1-4)Gal(b1-4)GlcNAc
# How it was run: as §1
# GalNAc(b1-3)Gal = molecular target: GalNAc(b1-3)Gal
# How it was run: as §1
# [11] = molecular target: GalNAc(b1-3)Gal(a1-4)Gal(b1-4)GlcNAc
# How it was run: as §1
# [12] = molecular target: GalNAc(b1-3)Gal(a1-4)Gal(b1-4)GlcNAc(b1-3)Gal(b1-4)Glc
# How it was run: as §1
# [13] = molecular target: GalNAc(b1-3)Gal(a1-6)Gal(b1-4)Glc
# How it was run: as §1
# GalNAc(b1-3)GalNAc = molecular target: GalNAc(b1-3)GalNAc
# How it was run: as §1
# GalNAc(b1-4)Gal(b1-4)Glc = molecular target: GalNAc(b1-4)Gal(b1-4)Glc
# How it was run: as §1
# GalNAc(b1-4)GlcNAc = molecular target: GalNAc(b1-4)GlcNAc
# How it was run: as §1
# [14] = molecular target: GalNAc(b1-4)GlcNAc(b1-2)Man(a1-3)[GalNAc(b1-4)GlcNAc(b1-2)Man(a1-6)]Man(b1-4)GlcNAc(b1-4)GlcNAc
# How it was run: as §1
binder,measurement,setting,value
Gal 9 (Canis lupus) (protein) MAFSSSQPPYLSPGVPFSGKIQGGLQDGLKITINGTILYCNGTRFAVNFHSGHSDSDIAFHFNPRFEEGGYVVCNTKQKGSWGSEERKMQMPFQMGNPFELCFMVNSCDFKVTVNGSHFTQYSHRVPFHYVDTLSITGAVQLSYISFQSPGVWQSSSAPITQTVIHTVQTTPGQPFPNPIIPPTAYPTPTYPMPFFTSIPGGLYPSKSIIVSGTVLPGAKRFHINLRSGNDIAFHLNPRFNENTVVRNMQINNSWGSEERSLPRKMPFVQGQSFSVWIMCEGHCFKVAVDGEHLFEYYHRLKNLLAINNMEVAGDVQLTHVQT,glycan array binding signal (z-score),[1],0.018
same,glycan array binding signal (z-score),[2],0.222
same,glycan array binding signal (z-score),[3],0.154
same,glycan array binding signal (z-score),[4],-0.121
same,glycan array binding signal (z-score),[5],0.157
same,glycan array binding signal (z-score),Gal(b1-6)Gal,-0.357
same,glycan array binding signal (z-score),Gal3S(b1-3)GalNAc,5.93
same,glycan array binding signal (z-score),Gal3S(b1-3)GlcNAc,0.396
same,glycan array binding signal (z-score),[6],-0.331
same,glycan array binding signal (z-score),Gal3S(b1-4)Glc,1.28
same,glycan array binding signal (z-score),Gal3S(b1-4)Glc6S,3.83
same,glycan array binding signal (z-score),Gal3S(b1-4)GlcNAc,0.222
same,glycan array binding signal (z-score),Gal3S(b1-4)GlcNAc6S,1.21
same,glycan array binding signal (z-score),[7],-0.311
same,glycan array binding signal (z-score),[8],-0.295
same,glycan array binding signal (z-score),Gal3S4S(b1-4)GlcNAc,-0.342
same,glycan array binding signal (z-score),Gal3S6S(b1-4)GlcNAc,-0.352
same,glycan array binding signal (z-score),Gal3S6S(b1-4)GlcNAc6S,-0.308
same,glycan array binding signal (z-score),Gal4S(b1-4)GlcNAc,-0.337
same,glycan array binding signal (z-score),Gal4S6S(b1-4)GlcNAc,-0.339
same,glycan array binding signal (z-score),Gal6S(b1-3)GlcNAc,-0.359
same,glycan array binding signal (z-score),Gal6S(b1-3)GlcNAc6S,-0.32
same,glycan array binding signal (z-score),Gal6S(b1-4)Glc,-0.336
same,glycan array binding signal (z-score),Gal6S(b1-4)Glc6S,-0.339
same,glycan array binding signal (z-score),Gal6S(b1-4)GlcNAc,-0.331
same,glycan array binding signal (z-score),Gal6S(b1-4)GlcNAc6S,-0.337
same,glycan array binding signal (z-score),GalNAc(a1-3)Gal,-0.328
same,glycan array binding signal (z-score),GalNAc(a1-3)GalNAc,-0.333
same,glycan array binding signal (z-score),[9],2.63
same,glycan array binding signal (z-score),[10],3.04
same,glycan array binding signal (z-score),GalNAc(b1-3)Gal,0.389
same,glycan array binding signal (z-score),[11],-0.027
same,glycan array binding signal (z-score),[12],0.067
same,glycan array binding signal (z-score),[13],-0.038
same,glycan array binding signal (z-score),GalNAc(b1-3)GalNAc,-0.32
same,glycan array binding signal (z-score),GalNAc(b1-4)Gal(b1-4)Glc,-0.343
same,glycan array binding signal (z-score),GalNAc(b1-4)GlcNAc,-0.203
same,glycan array binding signal (z-score),[14],-0.174
